Measurements from the supplement of paper PMC10369915.
This is one part of the list. No stated cut-off is given here; in the data, active = 3.2 or more and inactive = the rest. Most of these values are background signal.

How the values were obtained:
Test in all cases: enrichment score (SH2-bound / input frequency) (ratio); bacterial display of known human phosphotyrosine sites (pTyr-Var adds point mutants) read by sequencing; higher = stronger binding; tyrosines were phosphorylated by kinases first
Conditions in all cases: peptide library: pTyr-Var
[1] = target: SHP2 C-SH2 domain E139D
[2] = target: SHP2 C-SH2 domain wild-type
[3] = target: SHP2 N-SH2 domain L43F
[4] = target: SHP2 N-SH2 domain T42A
[5] = target: SHP2 N-SH2 domain T52S
[6] = target: SHP2 N-SH2 domain wild-type

Measured: enrichment score
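Further: displayed peptides selected on beads carrying the immobilized SH2 domain, with library peptides lacking any tyrosine serving as negative controls.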

CVAARYMDVKG [WFIKKN2_Y93]
inactive: [1] 0.762 | [2] 1.02 | [3] 0.852 | [4] 0.476 | [5] 0.827 | [6] 1.31

LSALDYKIFFF [WDPCP_Y210_YF]
inactive: [1] 0.682 | [2] 0.843 | [3] 0.711 | [4] 0.588 | [5] 0.84 | [6] 0.841

NPQKPYFIRLY [WAS_Y83_S82P]
inactive: [1] 0.747 | [2] 0.709 | [3] 0.551 | [4] 0.559 | [5] 0.584 | [6] 0.799

LSALDYKIFYY [WDPCP_Y210]
inactive: [1] 1.08 | [2] 1.08 | [3] 1.04 | [4] 0.997 | [5] 1.19 | [6] 1.41

WEQELYSQLVY [WAS_Y102]
inactive: [1] 1.05 | [2] 0.864 | [3] 1.09 | [4] 0.883 | [5] 1.08 | [6] 0.931

NPQKSYFIHLF [WAS_Y83_R86H_YF]
inactive: [1] 1.57 | [2] 1.77 | [3] 1.58 | [4] 1.7 | [5] 1.24 | [6] 1.64

NPQKSYLIRLF [WAS_Y83_F84L_YF]
inactive: [1] 0.961 | [2] 0.972 | [3] 1.05 | [4] 0.789 | [5] 0.848 | [6] 0.844

KLCHLYQDHMQ [WNT5A_Y86]
inactive: [1] 1.68 | [2] 1.81 | [3] 1.74 | [4] 1.45 | [5] 1.55 | [6] 1.64

AEYGLYGAMVW [VSX2_Y222_R227W]
inactive: [1] 0.688 | [2] 0.887 | [3] 0.956 | [4] 0.727 | [5] 0.668 | [6] 1.31

NPQKSCFIRLY [WAS_Y83_Y83C]
inactive: [1] 0.891 | [2] 1.03 | [3] 0.946 | [4] 0.756 | [5] 0.752 | [6] 0.988

EAAFVYAISSA [WNT4_Y113]
inactive: [1] 0.765 | [2] 0.729 | [3] 0.799 | [4] 0.729 | [5] 0.63 | [6] 0.952

LKLWDYSRGRC [WDR5B_Y239]
inactive: [1] 0.935 | [2] 1.29 | [3] 0.794 | [4] 1.12 | [5] 0.962 | [6] 1.08

NPQKSYFILLY [WAS_Y83_R86L]
inactive: [1] 0.665 | [2] 0.751 | [3] 0.528 | [4] 0.595 | [5] 0.702 | [6] 0.714

GLALRYLSDHS [VWF_Y1584]
inactive: [1] 0.967 | [2] 0.675 | [3] 1.02 | [4] 0.737 | [5] 0.839 | [6] 0.931

NPQKSYFICLF [WAS_Y83_R86C_YF]
inactive: [1] 1.64 | [2] 1.58 | [3] 1.54 | [4] 1.12 | [5] 1.25 | [6] 1.47

NPQKSCFIRLF [WAS_Y83_Y83C_YF]
inactive: [1] 0.913 | [2] 0.88 | [3] 0.802 | [4] 0.676 | [5] 0.765 | [6] 1

NPQKSYFIRLF [WAS_Y83_YF]
inactive: [1] 0.877 | [2] 0.745 | [3] 0.62 | [4] 0.761 | [5] 0.703 | [6] 0.784

NPQKSYFICLY [WAS_Y83_R86C]
inactive: [1] 0.942 | [2] 1.16 | [3] 0.809 | [4] 0.805 | [5] 0.807 | [6] 1.24

NPQKSYFILLF [WAS_Y83_R86L_YF]
inactive: [1] 1.24 | [2] 1.22 | [3] 1.37 | [4] 1.29 | [5] 1.12 | [6] 1.19
